From PubChem BioAssay AID1508623 (National Center for Advancing Translational Sciences (NCATS), 2021)
The campaign covered roughly 48,000 compounds. About 450 (0.94%) were called active. Not shown: some 19% with an inconclusive outcome. Calls follow the shape of the dose curve; as a rule, active = well fitted inhibition curve with a large enough effect; inconclusive = small, poorly fitted or top-dose-only effect; inactive = no such curve, though single readings can be large or run the other way. The list shows a part of the results.

Experiment: Primary qHTS for Identification of Small Molecule Inhibitors of Huntingtin Promoter Activity; also: nearly all actives have a fitted effect of over 50% in size
Conditions: HEK293 HTT promoter firefly luciferase reporter (activity 0% = vehicle and -100% = no light), 24 h; series mostly up to 57.5 µM; activity change, negative = inhibition: at the top concentration
How it was run: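 Firefly luciferase signal from promoter-reporter HEK293 cells was scaled between vehicle (0%) and zero RLU (-100%). Compounds were tested at final concentrations of up to 57.5 uM over 24 h at 37 degrees C. PTC124 at 50 uM final served as control inhibitor.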

Activity change, negative = inhibition, inactive:
COc1ccc(-c2nc3ccccc3n3c(-c4ccccc4)c4c(=O)n(C)c(=O)n(C)c4c23)cc1 -6.95% [at 11.5 µM]
Cc1onc(-c2ccccc2Cl)c1C(=O)N[C@@H]1C(=O)N2[C@@H]1SC(C)(C)[C@@H]2C(=O)O
COc1ccc2c(c1)c1c(c(=O)n(Cc3ccccc3)c(=O)n1Cc1ccc(C)cc1)n2C -15.4%
Cc1ccc(-n2ncc(C(=O)NCCCN3CCc4ccccc4C3)c2C2CCN(C(=O)OC(C)(C)C)CC2)cc1C -21.9%
CC(CNC(=O)CN1C(=O)COc2ccc(S(=O)(=O)N3CCCCC3)cc21)c1ccccc1 (centres undefined) 0.241%
CC1CN(C(=O)Nc2ccc(C(=O)NCCc3ccccc3Cl)cc2)c2ccccc2S1 (centres undefined) -14.2%
COc1ccccc1-c1cccc(-c2c(O)c3cc(C#N)c(Cl)cc3[nH]c2=O)c1 -15.2% [at 116 µM]
COc1ccc(-c2cc(C(F)(F)F)n3nc(C(=O)Nc4sc5c(c4C#N)CCC(C)C5)cc3n2)cc1OC (centres undefined) -8.52% [at 11.5 µM]
CCOC(=O)C1CCN(C(=O)c2cc3ccc4ccc(C)[nH]c4c3n2)CC1 40.9%
CCC(C)NC(=O)c1[nH]c2cc(OC)ccc2c1Sc1ccc(C)cc1 (centres undefined) -30.5%
CCOC(=O)c1cccc(NC(=O)c2cnn(-c3ccccc3)c2-n2cccc2)c1 -24.6%
O=C(CSCc1cc(=O)c2ccccc2[nH]1)Nc1cccc(C(F)(F)F)c1 -17.7%
CCC1CN(C(=O)Nc2ccccc2C(F)(F)F)c2ccccc2S1 (centres undefined) 5.31%
CCC1CN(C(=O)N2CCC(C(=O)N(C)Cc3ccccc3)CC2)c2ccccc2O1 (centres undefined) -20.9%
Cc1ccc(CNC(=O)c2cc(S(=O)(=O)N3CCCCC3)cn2C)cc1 -33%
COC(=O)c1scc(-c2ccc(C)cc2)c1S(=O)(=O)Nc1c(C)cc(C)cc1C -6.94%
CCS(=O)(=O)c1ncc(N(Cc2cccc(F)c2)Cc2ccco2)c(C(=O)Nc2ccccc2Cl)n1 12%
CCOc1ccccc1NC(=O)CCNS(=O)(=O)c1ccc2c(c1)CCN2C(=O)C1CC1 -8.35%
Cc1ccc(/C=C/c2onc(C)c2S(=O)(=O)N2CCC(C(=O)NCc3ccc(N(C)C)cc3)CC2)cc1 -18.9%
COc1ccc(NC(=O)CN(c2ccc(C)cc2)S(=O)(=O)c2cccs2)cc1OC -1.86%
Fc1ccccc1N1CCN(c2c3c(nc4nncn24)CCC3)CC1 -34.1%
CCC(Sc1nnc(-c2ccc(OC)cc2)c(-c2ccc(OC)cc2)n1)C(=O)Nc1cccc(OC)c1 (centres undefined) -5.17%
Cc1ccc(OCCCC(=O)Nc2sc3c(c2C(N)=O)CCCC3)cc1 -14.8%
CCCCN(C)C(=O)Cn1ncc2c([nH]c3ccc(C)cc32)c1=O -1.8%
